# According to PubChem BioAssay AID686979 (National Center for Advancing Translational Sciences (NCATS), 2013):
# Several values for one entry are separate records, joined by “and”; a condition that tells them apart may be missing. Equal entries are not always repeated. Out of some 420,000 compounds screened, about 50,000 (12%) were called active. Inconclusive results, whose numbers are uncertain, are shown with a selection of clear calls. Calls come from the whole dose curve; as a rule, active = well fitted inhibition curve with a large enough effect; inconclusive = small, poorly fitted or top-dose-only effect; inactive = flat fitted curve, though single readings scatter. Where the call is inconclusive, the potency comes from a doubtful curve fit. The source holds several records for some structures; these can differ, active in one and inactive in another.
# Assay: qHTS for Inhibitors of human tyrosyl-DNA phosphodiesterase 1 (TDP1): qHTS in cells in presence of CPT; note: nearly all actives have a fitted effect of over 55% in size
# Conditions: chicken DT40 Tdp1-/-;hTDP1 cells + 20 nM CPT, ATP luminescence, 48 h; activity change, negative = growth inhibition: at 46.2 µM (top of the series)
# How it was run: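 Chicken DT40 Tdp1-/- cells complemented with human TDP1, 400 cells/well, exposed to compounds plus 20 nM camptothecin for at least 48 h at 37 C; viability read as ATP content by CellTiter-Glo luminescence.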
# % is set by controls: 0 for no effect and ±100 for the full control effect; potency is the fitted concentration of half-maximal effect; tags give direction and shape of the fitted curve.
Structure (SMILES),Potency,"activity change, negative = growth inhibition"
O=S1(=O)CC(N2CCN(Cc3ccccc3F)CC2)CN1Cc1cn(Cc2ccc(F)cc2)nn1 (configuration not stated),inactive,–
O=c1c(-c2ccc(F)cc2)nc2cnc(N3CCNCC3)nc2n1Cc1cccs1,"inconclusive: 29.1 µM [inhibitor, single point]",–
O=[N+]([O-])c1ncc(Br)cc1Nc1ccccc1,"inconclusive: 18.4 µM [inhibitor, single point]",–
O=C(c1cc(-c2ccco2)nc2ccccc12)N1CCN(c2ccc(F)cc2)CC1,active: 20.6 µM,–
Cc1oc(C(C)(C)C)cc1C(=O)N1CCN(c2ncccc2C(F)(F)F)CC1,"inconclusive: 14.6 µM [inhibitor, partial curve]",–
COc1ccc(CC(N)c2csc(Nc3ccccn3)n2)cc1 (configuration not stated),active: 23.1 µM,–
N#Cc1ccc(CN2CC[C@@]3(CCCN(C(=O)c4cnccn4)C3)C2)cc1,inactive,–
COc1cc(CNc2ncnc3c2[nH]c2ccc(C)cc23)cc(OC)c1,"inconclusive: 29.1 µM [inhibitor, single point]",–
Nc1cc([N+](=O)[O-])cc2oc(-c3ccccc3)cc12,inactive,–
Nc1[nH]c(C(=O)c2ccccc2)c(-c2ccccc2Cl)c1C(=O)c1ccccc1,"inconclusive: 29.1 µM [inhibitor, single point]",–
NC(=S)N=Nc1c(O)[nH]c2c(Br)cc(Br)cc12,"inconclusive: 29.1 µM [inhibitor, single point]",–
COc1ccc(S(=O)(=O)N2CCC(C(=O)NCCc3c[nH]c4ccccc34)CC2)cc1,"inconclusive: 16.4 µM [inhibitor, single point]",–
Cc1ccc(Cc2nc3ccccc3nc2SCC(=O)N2CCN(c3ccc(F)cc3)CC2)cc1,"inconclusive: 8.2 µM [inhibitor, single point]",–
OC1(c2ccccc2)Cc2cccc[n+]2C1c1ccccc1 (configuration not stated),inactive,–
CCCCOC(=O)c1ccc(N=Nc2c(C)c(C#N)c(O)[nH]c2=O)cc1,"inconclusive: 20.6 µM [inhibitor, single point]",–
CN(Cc1ccccc1)C1(CNC(=O)CCC(F)(F)F)Cc2ccccc2C1,"inconclusive: 29.1 µM [inhibitor, single point]",–
Cc1ccccc1C(=O)NC(=S)Nc1ccccc1C(F)(F)F,inactive,–
COc1ccc(-c2cccc(NS(=O)(=O)c3ccc([N+](=O)[O-])cc3)c2)nn1,"inconclusive: 20.6 µM [inhibitor, single point]",–
Cc1ccc(Nc2cc(C)nn2-c2nc(C)cc(C)n2)cc1,active: 5.8 µM,–
CCc1ccc(-n2nc(C)c3c(C)cc(=O)n(CC(=O)Nc4ccc(F)cc4C)c32)cc1,inactive,–
CCOc1cc(CNc2ccccc2)cc(Br)c1OCC(=O)NC(C)(C)C,"inconclusive: 29.1 µM [inhibitor, single point]",–
O=C(Nc1cn(-c2ccccc2)nc1-c1ccccc1)c1ccccc1,"inconclusive: 25.9 µM [inhibitor, single point]",–
CC(C)N(Cc1nc(-c2ccc(Cl)cc2)no1)C(=O)CCC1CCCC1,"inconclusive: 18.4 µM [inhibitor, single point]",–
CCc1nn(CC(=O)NC(C)CCc2ccccc2)c(=O)c2cc3c(OC)cccc3n12 (configuration not stated),inactive,–

Structure (SMILES),Potency,"activity change, negative = growth inhibition"
Cc1nnc(SCC(=O)NCc2ccccc2Cl)c2nn(-c3ccccc3)c(C)c12,"inconclusive: 20.6 µM [inhibitor, single point]",–
O=C1OC2C(O)COC23OC(O)CCC13O (configuration not stated),inactive,–
CCOc1ccc2[nH]c(=O)c(CN(CCCO)C(C)=O)cc2c1,inactive,–
OCC1(Cc2cccc(Cl)c2)CCCN(Cc2ccc(F)c(F)c2)C1 (configuration not stated),active: 23.1 µM,–
CSc1nc2ccc(NC(=O)C3CCCO3)cc2s1 (configuration not stated),inactive,–
Cc1ccc2c(CN3CCN(C(=O)c4ccc(Br)cc4)CC3)cc(=O)oc2c1,active: 20.6 µM,–
CCOC(=O)CNc1nc(C#N)nc(N2CCOCC2)n1,active: 12.6 µM,–
CCc1ccccc1N=Cc1c(C)c(C#N)c2[nH]c3ccccc3n2c1=O,inactive,–
CC(C)(C)N1C(=O)[C@H]2[C@@H](c3ccc(Br)cc3)N3C(=O)N(c4cccc(Br)c4)C(=O)[C@@]3(Cc3ccccc3)[C@H]2C1=O,"inconclusive: 23.1 µM [inhibitor, single point]",–
CCOC(=O)c1[nH]c2ccc(OC)cc2c1NC(=O)CN1CCc2ccccc2C1,active: 25.9 µM,–
COc1ccc(C(=O)/C=C/Nc2c(C)n(C)n(-c3ccccc3)c2=O)cc1OC,active: 23.1 µM,–
CCOC(=O)c1ccc(CNCc2ccccc2)cc1,inactive,–
O=C(Cc1ccccc1)Nc1ccc(NC(=O)C2CC2)nc1,inactive,–
CC1CCCCN1S(=O)(=O)c1ccc2c(c1)CCN2C(=O)C1CCC1 (configuration not stated),"inconclusive: 29.1 µM [inhibitor, single point]",–
CCC(C(=O)N1CCN(c2cc(C)ccc2C)CC1)n1nc(C)n2c(cc3occc32)c1=O (configuration not stated),"inconclusive: 20.6 µM [inhibitor, single point]",–
COc1cc(-c2ccc(N3C(c4ccsc4)=Cc4ccccc4C3CC(C)=O)cc2)cc(OC)c1OC (configuration not stated),"inconclusive: 29.1 µM [inhibitor, single point]",–
Cc1ccc2nc(COc3ccc(N(C)S(=O)(=O)c4ccccc4)cc3)cc(=O)n2c1,"inconclusive: 23.1 µM [inhibitor, single point]",–
O=C(/C=C/c1ccc(OCCCF)cc1)NCc1cccc(Cl)c1,"inconclusive: 10.3 µM [inhibitor, partial curve]",–
Cn1c(=O)c2c(nc(N3CCOCC3)n2Cc2ccc(Br)cc2)n(C)c1=O,active: 10.3 µM,–
CN(C)C1CCC(CC2CCc3ccccc32)CC1 (configuration not stated),"inconclusive: 35.5 µM [inhibitor, single point]",–
COc1ccc(N=c2cc(-c3ccc(O)cc3)oc3ccccc23)cc1,"inconclusive: 29.1 µM [inhibitor, single point]",–
O=C(O)CC1S/C(=N\N=C2\C(=O)Nc3ccccc32)N(c2ccc(O)cc2)C1=O (configuration not stated),inactive,–
Cc1ccc2c(c1)Oc1ccccc1C=C2C(=O)O,inactive,–
Cc1ccc(C)c(N2CCN(C(c3ccc(N(C)C)cc3)c3nnnn3C(C)(C)C)CC2)c1 (configuration not stated),"inconclusive: 29.1 µM [inhibitor, single point]",–

Structure (SMILES),Potency,"activity change, negative = growth inhibition"
CCCn1nnnc1SCC(=O)N1C(C)CCCC1C (configuration not stated),inactive,–
COc1cc(O)ccc1C(=O)CCc1ccc(O)cc1,inactive,–
Cc1ccc(NC(=O)c2nc(S(=O)(=O)Cc3ccccc3C)ncc2Cl)cc1C,active: 1.46 µM,–
CCOC(=O)[C@]12CCCC=C1N(Cc1ccc(Cl)cc1Cl)C(=O)[C@H](CC(=O)N1CCN(C(=O)C3CC3)CC1)C2,"inconclusive: 18.4 µM [inhibitor, single point]",–
CCOC(=O)C1C(=O)C=C(c2ccc(C)cc2)CC1c1ccco1 (configuration not stated),"inconclusive: 25.9 µM [inhibitor, single point]",–
C[C@H](O)[C@@H]1CN2CCc3c([nH]c4ccccc34)[C@@H]2C[C@@H]1N(C)C(=S)NCCc1ccccc1,"inconclusive: 29.1 µM [inhibitor, single point]",–
COc1ccc(/C(N)=N/OC(=O)c2ccc3ccccc3c2)cc1OC,"inconclusive: 25.9 µM [inhibitor, single point]",–
CC(C)CC1Nc2ncnc(N3CCN(c4ccccc4)CC3)c2N(Cc2ccc(Cl)cc2)C1=O (configuration not stated),"inconclusive: 16.4 µM [inhibitor, single point]",–
COc1cccc(/C=N/Nc2ccc(S(=O)(=O)O)cc2)c1O,inactive,–
C=CCN(C(=O)Nc1ccc(F)cc1)C1CC(=O)N(c2ccc(OC)cc2)C1=O (configuration not stated),inactive,–
COc1ccc(S(=O)(=O)N2CCC(C(=O)Nc3cccc(C(C)=O)c3)CC2)cc1,"inconclusive: 23.1 µM [inhibitor, single point]",–
COc1ccc(S(N)(=O)=O)cc1C(=O)OCCCC(=O)c1ccccc1,"inconclusive: 25.9 µM [inhibitor, single point]",–
OC(COc1ccc(Cl)cc1)CN1C2=NCCCN2c2ccccc21 (configuration not stated),active: 20.6 µM,–
Cc1ccc(NC(=O)c2cc(S(=O)(=O)NCC3CCCO3)ccc2F)cc1 (configuration not stated),"inconclusive: 29.1 µM [inhibitor, single point]",–
CCCS(=O)(=O)NCc1c(C)ncc2c1CCN(C(=O)c1cccc(Cl)c1F)C2,–,inactive: 22.3% [at 9.04 µM]
COc1ccc(NC(=O)C2CCN(c3ccc(Sc4ccc(C)cc4)nn3)CC2)c(OC)c1,"inconclusive: 16.4 µM [inhibitor, partial curve]",–
Cc1ccc(S(=O)(=O)N(CC(=O)Nc2cccc(C)c2C)C(=O)N2CCN(C)CC2)cc1,inactive,–
Cc1ccc(CN2CCN(C3CCNCC3)C(=O)C2=O)cc1,inactive,–
CN(CC(=O)Nc1cccc(F)c1)C(=O)c1cccc(S(=O)(=O)N2CCN(c3ccc(F)cc3)CC2)c1,active: 20.6 µM,–
O=C(CSc1ccc(-c2ccccn2)nn1)Nc1ccc(F)cc1F,"inconclusive: 29.1 µM [inhibitor, single point] and inconclusive: 20.6 µM [inhibitor, partial curve]",–
O=C(Cc1ccc2c(c1)OCCO2)N1CCN(S(=O)(=O)c2ccccc2C(F)(F)F)CC1,inactive,–
CN(C)S(=O)(=O)c1cccc(C(=O)NCCNC(=O)c2cccc(S(=O)(=O)N(C)C)c2)c1,inactive,–
CC(=O)Oc1ccc(-c2nc(-c3ccccc3)no2)cc1,"inconclusive: 35.5 µM [inhibitor, single point]",–
O=C(Nc1nccs1)C1CCCN(S(=O)(=O)c2cccc3cccnc23)C1 (configuration not stated),"inconclusive: 29.1 µM [inhibitor, single point]",–
